According to the supplement of paper PMC10369915:
This is one part of the list. No stated cut-off is given here; in the data, active = 3.2 or more and inactive = the rest. Only a few entries rise above the background.

B1: PDE6B_Y556_R552Q (peptide)
chain: YQRITYHNWRH
B2: PDGFRA_Y572_H570R (peptide)
chain: PDGREYIYVDP
B3: PDGFRA_Y572_H570R_YF (peptide)
chain: PDGREYIFVDP
B4: PDGFRA_Y574 (peptide)
chain: GHEYIYVDPMQ
B5: PDGFRA_Y849_Y849C (peptide)
chain: MHDSNCVSKGS
B6: PDGFRA_Y993 (peptide)
chain: YIGVTYKNEED
B7: PDGFRB_Y562 (peptide)
chain: QKKPRYEIRWK
B8: PDGFRB_Y716_N718Y (peptide)
chain: PSAELYSYALP
B9: PDHA1_Y227_T231A (peptide)
chain: CENNRYGMGAS
B10: PDHA1_Y242_YF (peptide)
chain: AASTDYFKRGD
B11: PDHA1_Y243 (peptide)
chain: ASTDYYKRGDF
B12: PDLIM5_Y382_T381A (peptide)
chain: SNSAAYSGSVA
B13: PDPK1_Y9 (peptide)
chain: TTSQLYDAVPI
B14: PEAR1_Y890 (peptide)
chain: RLDRSYSYSYS
B15: PEAR1_Y890_R885H_YF (peptide)
chain: HLDRSYSFSFS
B16: PES1_Y265 (peptide)
chain: AGEGTYALDSE
B17: PFAS_Y538 (peptide)
chain: AGAIIYTSRFQ
B18: PGK1_Y161_G158V (peptide)
chain: KLVDVYVNDAF
B19: PGM1_Y521_L516P_YF (peptide)
chain: PFIDSYEKDVA

Key:
Assay in all cases: enrichment score (SH2-bound / input frequency) (ratio); bacterial display of known human phosphotyrosine sites (pTyr-Var adds point mutants) read by sequencing; higher = stronger binding; tyrosines were phosphorylated by kinases first
Details in all cases: peptide library: pTyr-Var
SHP2 C-SH2 domain E139D = target: SHP2 C-SH2 domain E139D
[1] = target: SHP2 C-SH2 domain wild-type
SHP2 N-SH2 domain L43F = target: SHP2 N-SH2 domain L43F
SHP2 N-SH2 domain T42A = target: SHP2 N-SH2 domain T42A
SHP2 N-SH2 domain T52S = target: SHP2 N-SH2 domain T52S
[2] = target: SHP2 N-SH2 domain wild-type
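Further: displayed peptides selected on beads carrying the immobilized SH2 domain, with library peptides lacking any tyrosine serving as negative controls.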

Binder | enrichment score (SHP2 C-SH2 domain E139D) | enrichment score [1] | enrichment score (SHP2 N-SH2 domain L43F) | enrichment score (SHP2 N-SH2 domain T42A) | enrichment score (SHP2 N-SH2 domain T52S) | enrichment score [2]
B1 | active: 3.66 | inactive: 3.02 | active: 3.26 | inactive: 3.15 | active: 3.44 | inactive: 3.08
B2 | inactive: 0.534 | inactive: 0.519 | inactive: 0.535 | inactive: 0.462 | inactive: 0.515 | inactive: 0.701
B3 | inactive: 0.799 | inactive: 0.86 | inactive: 0.609 | inactive: 0.811 | inactive: 0.799 | inactive: 0.668
B4 | inactive: 1.03 | inactive: 1.03 | inactive: 0.944 | inactive: 0.644 | inactive: 1.01 | inactive: 0.923
B5 | inactive: 0.662 | inactive: 0.55 | inactive: 0.683 | inactive: 0.633 | inactive: 0.625 | inactive: 0.628
B6 | inactive: 0.909 | inactive: 1.21 | inactive: 1.38 | inactive: 1.79 | inactive: 1.43 | inactive: 0.984
B7 | active: 7.54 | active: 7.33 | active: 4.62 | active: 6.75 | active: 5.62 | active: 6.19
B8 | inactive: 0.901 | inactive: 0.86 | inactive: 0.633 | inactive: 0.552 | inactive: 0.702 | inactive: 0.829
B9 | inactive: 0.64 | inactive: 0.772 | inactive: 0.623 | inactive: 0.511 | inactive: 0.537 | inactive: 0.709
B10 | inactive: 0.545 | inactive: 0.452 | inactive: 0.542 | inactive: 0.442 | inactive: 0.388 | inactive: 0.656
B11 | inactive: 0.526 | inactive: 0.579 | inactive: 0.697 | inactive: 0.54 | inactive: 0.733 | inactive: 0.861
B12 | inactive: 0.663 | inactive: 0.601 | inactive: 0.554 | inactive: 0.445 | inactive: 0.487 | inactive: 0.553
B13 | inactive: 0.971 | inactive: 0.898 | inactive: 0.926 | inactive: 0.946 | inactive: 0.805 | inactive: 0.867
B14 | inactive: 0.472 | inactive: 0.534 | inactive: 0.47 | inactive: 0.432 | inactive: 0.443 | inactive: 0.553
B15 | inactive: 0.742 | inactive: 0.592 | inactive: 0.577 | inactive: 0.658 | inactive: 0.754 | inactive: 0.978
B16 | inactive: 0.59 | inactive: 0.443 | inactive: 0.341 | inactive: 0.647 | inactive: 0.595 | inactive: 0.65
B17 | inactive: 0.662 | inactive: 0.649 | inactive: 0.63 | inactive: 0.842 | inactive: 0.555 | inactive: 0.722
B18 | inactive: 0.839 | inactive: 0.929 | inactive: 0.932 | inactive: 0.752 | inactive: 0.912 | inactive: 0.98
B19 | inactive: 0.639 | inactive: 0.698 | inactive: 0.585 | inactive: 0.662 | inactive: 0.847 | inactive: 0.728
